Here are results for 73 sequences from the BET-seq Pho4 binding data (Le et al. 2018).

The other results are listed elsewhere or left out. The energies were worked out here from pooled read counts, against the library average; single values are noisy.

In the test the target is T1, Pho4 (S. cerevisiae) (UniProt P07270).
T1 sequence: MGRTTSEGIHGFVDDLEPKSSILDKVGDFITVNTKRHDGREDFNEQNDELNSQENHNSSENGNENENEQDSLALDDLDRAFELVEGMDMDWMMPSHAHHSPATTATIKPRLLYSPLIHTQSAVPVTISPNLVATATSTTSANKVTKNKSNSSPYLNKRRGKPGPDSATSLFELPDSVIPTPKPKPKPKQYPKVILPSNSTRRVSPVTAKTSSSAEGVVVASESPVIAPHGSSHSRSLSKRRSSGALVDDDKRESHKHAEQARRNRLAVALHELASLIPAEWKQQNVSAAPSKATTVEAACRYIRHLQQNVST
In words: relative binding free energy (BET-seq); higher = weaker binding. The settings on record: reference: library average.
Regarding GTTATCACGTGGGTCG, the “relative binding free energy” value came to 0.19 kcal/mol.

As for GAGGACACGTGGGGGC, the “relative binding free energy” value is -0.12 kcal/mol.

As for AATAACACGTGGGTAT, the “relative binding free energy” value was -0.1 kcal/mol.

As to GATCGCACGTGGGGTG, the “relative binding free energy” value was -0.15 kcal/mol.

Consider CTTTACACGTGGGAGT, for which the “relative binding free energy” value was -0.16 kcal/mol.

As to GTGAGCACGTGAGGAT, the “relative binding free energy” value worked out at 0.1 kcal/mol.

With GATTTCACGTGGCATT, the “relative binding free energy” value is 0.37 kcal/mol.

With TTAAGCACGTGATGAT, the “relative binding free energy” value came to 0.09 kcal/mol.

With AAAATCACGTGGAGTG, the “relative binding free energy” value stood at 0.17 kcal/mol.

For GTCGTCACGTGGAAGG, the “relative binding free energy” value stood at 0.13 kcal/mol.

GAGACCACGTGATGGG: the “relative binding free energy” value is 0.28 kcal/mol.

Regarding ATGGGCACGTGGTCAA, the “relative binding free energy” value was -0.16 kcal/mol.

Regarding GGGTTCACGTGAATGA, the “relative binding free energy” value came out at 0.55 kcal/mol.

With GGTGCCACGTGAGTTT, the “relative binding free energy” value turned out to be 0.2 kcal/mol.

Take TGGTGCACGTGCGTGG: the “relative binding free energy” value was -0.04 kcal/mol.

CGAGGCACGTGAAATG: the “relative binding free energy” value was found to be 0.27 kcal/mol.

Consider ATTGCCACGTGGTTGT, for which the “relative binding free energy” value was -0.24 kcal/mol.

On to CGTAGCACGTGGGCGG, for which the “relative binding free energy” value is -0.25 kcal/mol.

As for AAGTGCACGTGGCATG, the “relative binding free energy” value is -0.08 kcal/mol.

As for GGTGGCACGTGTCGTA, the “relative binding free energy” value is -0.09 kcal/mol.

For AGGTACACGTGTAGCT, the “relative binding free energy” value was determined as 0.19 kcal/mol.

Turning to GGTGTCACGTGTAACG, the “relative binding free energy” value came to 0.08 kcal/mol.

As for GGAGTCACGTGGATCG, the “relative binding free energy” value was 0.16 kcal/mol.

Consider AGGACCACGTGCGGGG, for which the “relative binding free energy” value is -0.01 kcal/mol.

GTGGGCACGTGTTGCG: the “relative binding free energy” value is -0.11 kcal/mol.

Take TCGGTCACGTGATACG: the “relative binding free energy” value is 0.35 kcal/mol.

In the case of TCTATCACGTGAAGTT, the “relative binding free energy” value turned out to be 0.43 kcal/mol.

For the sequence TTAATCACGTGTAATT, the “relative binding free energy” value worked out at 0.23 kcal/mol.

For GAGTGCACGTGCCGGT, the “relative binding free energy” value was -0.04 kcal/mol.

As for GGGAGCACGTGTTCTT, the “relative binding free energy” value is -0.03 kcal/mol.

Take GCTGTCACGTGGTAAA: the “relative binding free energy” value stood at 0.2 kcal/mol.

Regarding ATATTCACGTGAGGGA, the “relative binding free energy” value worked out at 0.4 kcal/mol.

On to TGTATCACGTGTTTTT, for which the “relative binding free energy” value came out at 0.21 kcal/mol.

On to TAGGTCACGTGTTTAA, for which the “relative binding free energy” value is 0.09 kcal/mol.

For ACTTGCACGTGTGGTT, the “relative binding free energy” value was -0.01 kcal/mol.

Turning to TTTTGCACGTGAAGAG, the “relative binding free energy” value was 0.28 kcal/mol.

For GGAAGCACGTGGGCGC, the “relative binding free energy” value was -0.19 kcal/mol.

Regarding TCTATCACGTGTGGTG, the “relative binding free energy” value came out at 0.09 kcal/mol.

With TGCTGCACGTGAGTAT, the “relative binding free energy” value worked out at 0.17 kcal/mol.

In the case of CTTTCCACGTGGTTTT, the “relative binding free energy” value was 0.17 kcal/mol.

With AAGATCACGTGGGATG, the “relative binding free energy” value was determined as 0.12 kcal/mol.

In the case of CTAGTCACGTGGGTGT, the “relative binding free energy” value was determined as 0.03 kcal/mol.

Take GTAATCACGTGTGTCT: the “relative binding free energy” value was 0.11 kcal/mol.

With CCTGGCACGTGTAGTG, the “relative binding free energy” value was -0.1 kcal/mol.

For the sequence AATCACACGTGTGGTT, the “relative binding free energy” value was 0.18 kcal/mol.

For the sequence CGGGACACGTGAGTAT, the “relative binding free energy” value is 0.32 kcal/mol.

AGAGGCACGTGCATGT: the “relative binding free energy” value was -0.05 kcal/mol.

Consider TGTGGCACGTGCGTTT, for which the “relative binding free energy” value was -0.05 kcal/mol.

For the sequence TGATTCACGTGTTGAA, the “relative binding free energy” value was 0.31 kcal/mol.

Take CATGTCACGTGGATTG: the “relative binding free energy” value was determined as 0.16 kcal/mol.

Consider GCGTACACGTGACGGG, for which the “relative binding free energy” value is 0.3 kcal/mol.

For GTGTCCACGTGGGGCA, the “relative binding free energy” value is -0.21 kcal/mol.

Take GGATGCACGTGAGTGT: the “relative binding free energy” value came out at 0.24 kcal/mol.

For TTGCGCACGTGGTCAG, the “relative binding free energy” value was -0.11 kcal/mol.

Consider TCAGTCACGTGCGGTA, for which the “relative binding free energy” value is 0.1 kcal/mol.

As for GGTGCCACGTGGGCAG, the “relative binding free energy” value was -0.05 kcal/mol.

In the case of CTGTTCACGTGGGCTG, the “relative binding free energy” value turned out to be 0.12 kcal/mol.

With AGGGGCACGTGAGTGT, the “relative binding free energy” value was 0.05 kcal/mol.

In the case of GTTGGCACGTGTTCGT, the “relative binding free energy” value amounted to 0.03 kcal/mol.

As for AGTCTCACGTGAGTTT, the “relative binding free energy” value was 0.43 kcal/mol.

As for CTGAGCACGTGTTGCG, the “relative binding free energy” value was -0.11 kcal/mol.

On to ATTATCACGTGGCTTG, for which the “relative binding free energy” value is -0.03 kcal/mol.

For the sequence TTAAGCACGTGATTGC, the “relative binding free energy” value was 0.06 kcal/mol.

For AAGTGCACGTGTAAGT, the “relative binding free energy” value amounted to 0.07 kcal/mol.

AGGAACACGTGTGGTA: the “relative binding free energy” value was -0.03 kcal/mol.

In the case of GAATTCACGTGTGAAT, the “relative binding free energy” value was 0.6 kcal/mol.

Turning to GGTTGCACGTGTCTTT, the “relative binding free energy” value was determined as 0.15 kcal/mol.

Regarding CTGGGCACGTGATGGT, the “relative binding free energy” value was 0.04 kcal/mol.

In the case of AAGATCACGTGTGATG, the “relative binding free energy” value came out at 0.2 kcal/mol.

For the sequence TACTTCACGTGAGTGG, the “relative binding free energy” value came to 0.21 kcal/mol.

Regarding TATTGCACGTGTAGGT, the “relative binding free energy” value was -0.02 kcal/mol.

Turning to GGGGCCACGTGTTCTG, the “relative binding free energy” value was -0.1 kcal/mol.

As to TTGGACACGTGAGAGG, the “relative binding free energy” value was found to be 0.22 kcal/mol.
